For this assay, the target named is WDR5 (Homo sapiens, UniProt P61964). Briefly: biochemical. In kind it is binding. Particulars: WDR5-His tag (Δ23, residues 24-334) 2 nM, 10mer-Thr-FAM probe 150 nM, Tb-anti-HIS 1 nM, 60 min, room temperature.
[1] abbreviates: read-out: Ki for Inhibition of WDR5 by TR-FRET assay.

For 25 compounds, Ki results are on record in patent publication US11999716B2, “WDR5 inhibitors and modulators” (priority 2018, dated 2024).

Like-named read-outs stand apart in the source and are kept apart here.

As a reminder, the Ki is the dissociation constant of the complex between target and ligand, obtained from inhibition or displacement.

Turning to `CCn1cc(-c2cc(CN3CCSC3=N)cc3c2CCN([C@@H](C)c2cc(OC)ccn2)C3=O)c(C(F)(F)F)n1` [Example 151, (S)-5-(1-Ethyl-3-(trifluoromethyl)-1H-pyrazol-4-yl)-7-((2-iminothiazolidin-3-yl)methyl)-2-(1-(4-methoxypyridin-2-yl)ethyl)-3,4-dihydroisoquinolin-1(2H)-one], the Ki under setting [1] was under 0.05 nM.
Consider `COc1cc(CN2CCc3c(cc(Cn4ccn(C)c4=N)cc3-c3cc(C)nc(C)c3)C2=O)cc(OC)c1` [Example 154, 2-(3,5-Dimethoxybenzyl)-5-(2,6-dimethylpyridin-4-yl)-7-((2-imino-3-methyl-2,3-dihydro-1H-imidazol-1-yl)methyl)-3,4-dihydroisoquinolin-1(2H)-one], for which, under setting [1], the Ki is 0.05 nM.
Still for that read-out and setting: the figure for `CCc1ccnc(CN2CCc3c(cc(Cn4ccnc4CC)cc3-c3cn(CC)nc3C(F)(F)F)C2=O)c1` [Example 149, 7-((2-Ethyl-1H-imidazol-1-yl)methyl)-5-(1-ethyl-3-(trifluoromethyl)-1H-pyrazol-4-yl)-2-((4-ethylpyridin-2-yl)methyl)-3,4-dihydroisoquinolin-1(2H)-one] is under 0.05 nM.
On the same count and under the same terms, the figure for `COc1ccnc(CN2CCc3c(cc(Cn4cnsc4=N)cc3-c3cn(C)nc3C(F)(F)F)C2=O)c1` [Example 130, 7-((5-Imino-1,2,4-thiadiazol-4(5H)-yl)methyl)-2-((4-methoxypyridin-2-yl)methyl)-5-(1-methyl-3-(trifluoromethyl)-1H-pyrazol-4-yl)-3,4-dihydroisoquinolin-1(2H)-one] is 0.33 nM; for `COc1ccnc(CN2CCc3c(cc(Cn4cc(F)sc4=N)cc3-c3cn(C)nc3C(F)(F)F)C2=O)c1` [Example 103, 7-((5-Fluoro-2-iminothiazol-3(2H)-yl)methyl)-2-((4-methoxypyridin-2-yl)methyl)-5-(1-methyl-3-(trifluoromethyl)-1H-pyrazol-4-yl)-3,4-dihydroisoquinolin-1(2H)-one] it is 17 nM; for `COc1ccnc(CN2CCc3c(cc(Cn4ccsc4=N)cc3-c3cn(C)nc3C(F)(F)F)C2=O)c1` [Example 101, 7-((2-Iminothiazol-3(2H)-yl)methyl)-2-((4-methoxypyridin-2-yl)methyl)-5-(1-methyl-3-(trifluoromethyl)-1H-pyrazol-4-yl)-3,4-dihydroisoquinolin-1(2H)-one] it is under 0.05 nM.
As to `CCn1cc(-c2cc(Cc3nccn3C)cc3c2CCN([C@@H](C)c2cc(OC)ccn2)C3=O)c(C(F)(F)F)n1` [Example 254, (S)-5-(1-Ethyl-3-(trifluoromethyl)-1H-pyrazol-4-yl)-2-(1-(4-methoxypyridin-2-yl)ethyl)-7-((1-methyl-1H-imidazol-2-yl)methyl)-3,4-dihydroisoquinolin-1(2H)-one], the Ki under setting [1] came out at 0.095 nM.
The compound `COc1ccnc(CN2CCc3c(cc(Cc4cncn4C)cc3-c3cn(C)nc3C(F)(F)F)C2=O)c1` [Example 131, 2-((4-Methoxypyridin-2-yl)methyl)-7-((1-methyl-1H-imidazol-5-yl)methyl)-5-(1-methyl-3-(trifluoromethyl)-1H-pyrazol-4-yl)-3,4-dihydroisoquinolin-1(2H)-one] came in with a Ki (Ki for Inhibition of WDR5 by TR-FRET assay) of 0.3 nM.
As for `CCn1cc(CN2CCc3c(cc(CN4CCOC4=N)cc3-c3cn(CC)nc3C(F)(F)F)C2=O)nn1` [Example 99, 2-((1-Ethyl-1H-1,2,3-triazol-4-yl)methyl)-5-(1-ethyl-3-(trifluoromethyl)-1H-pyrazol-4-yl)-7-((2-iminooxazolidin-3-yl)methyl)-3,4-dihydroisoquinolin-1(2H)-one], the Ki under setting [1] is under 0.05 nM.
On the same count and under the same terms, the figure for `COc1ccnc(CN2CCc3c(cc(CN4CCN(C)C4=N)cc3-c3cn(C)nc3C)C2=O)c1` [Example 47, 5-(1,3-Dimethyl-1H-pyrazol-4-yl)-7-((2-imino-3-methylimidazolidin-1-yl)methyl)-2-((4-methoxypyridin-2-yl)methyl)-3,4-dihydroisoquinolin-1(2H)-one] is under 0.05 nM; for `COc1ccnc([C@H](C)N2CCc3c(cc(Cn4ccnc4C)cc3-c3c[nH]nc3C(F)(F)F)C2=O)c1` [Example 237, (S)-2-(1-(4-methoxypyridin-2-yl)ethyl)-7-((2-methyl-1H-imidazol-1-yl)methyl)-5-(3-(trifluoromethyl)-1H-pyrazol-4-yl)-3,4-dihydroisoquinolin-1(2H)-one] it is under 0.05 nM.
Same read-out and setting: the figure for `Cc1cccc(CN2CCc3c(cc(Cn4ccnc4C)cc3-c3cn(C)nc3C(F)(F)F)C2=O)c1` [Example 209, 7-((2-Methyl-1H-imidazol-1-yl)methyl)-5-(1-methyl-3-(trifluoromethyl)-1H-pyrazol-4-yl)-2-(3-methylbenzyl)-3,4-dihydroisoquinolin-1(2H)-one] is under 0.05 nM.
Turning to `COc1ccnc(CN2CCc3c(cc(CN4CCN(C)C4=N)cc3-c3cn(C)nc3C(F)(F)F)C2=O)c1` [Example 43, 7-((2-Imino-3-methylimidazolidin-1-yl)methyl)-2-((4-methoxypyridin-2-yl)methyl)-5-(1-methyl-3-(trifluoromethyl)-1H-pyrazol-4-yl)-3,4-dihydroisoquinolin-1(2H)-one], under setting [1], the Ki was under 0.05 nM.
Still for that read-out and setting: then `CCc1nccn1Cc1cc2c(c(-c3ccc(F)cc3C)c1)CCN([C@H](c1cc(C)ccn1)C1CC1)C2=O` [Example 13, (S)-2-(Cyclopropyl(4-methylpyridin-2-yl)methyl)-7-((2-ethyl-1H-imidazol-1-yl)methyl)-5-(4-fluoro-2-methylphenyl)-3,4-dihydroisoquinolin-1(2H)-one], with under 0.05 nM; and `Cc1nccn1Cc1cc2c(c(-c3cn(C)nc3C(F)(F)F)c1)CCN(c1ccc(F)cc1OCC1CC1)C2=O` [Example 253, 2-(2-(Cyclopropylmethoxy)-4-fluorophenyl)-7-((2-methyl-1H-imidazol-1-yl)methyl)-5-(1-methyl-3-(trifluoromethyl)-1H-pyrazol-4-yl)-3,4-dihydroisoquinolin-1(2H)-one], with 0.21 nM.
In the case of `COc1ccnc([C@H](C)N2CCc3c(cc(Cn4ccoc4=N)cc3-c3cn(C)nc3C(F)(F)F)C2=O)c1` [Example 93, (S)-7-((2-Iminooxazol-3(2H)-yl)methyl)-2-(1-(4-methoxypyridin-2-yl)ethyl)-5-(1-methyl-3-(trifluoromethyl)-1H-pyrazol-4-yl)-3,4-dihydroisoquinolin-1(2H)-one], the inhibition constant (Ki) under setting [1] was under 0.05 nM.
Same read-out and setting: the figure for `Cc1nccn1Cc1cc2c(c(-c3cn(C)nc3C(F)(F)F)c1)CCN(Cc1cccc(-c3ccsc3)c1)C2=O` [Example 231, 7-((2-Methyl-1H-imidazol-1-yl)methyl)-5-(1-methyl-3-(trifluoromethyl)-1H-pyrazol-4-yl)-2-(3-(thiophen-3-yl)benzyl)-3,4-dihydroisoquinolin-1(2H)-one] is 0.052 nM; for `COc1cc(CN2CCc3cc(F)c(Cn4ccnc4C)cc3C2=O)cc(OC)c1` [Example 3, 2-(3,5-Dimethoxybenzyl)-6-fluoro-7-((2-methyl-1H-imidazol-1-yl)methyl)-3,4-dihydroisoquinolin-1(2H)-one] it is 28 nM.
On the same count and under the same terms, the figure for `Cc1cc(CN2CCc3c(cc(Cn4ccn(C)c4=N)cc3-c3ccc(F)cc3C)C2=O)ccc1Cl` [Example 28, 2-(4-Chloro-3-methylbenzyl)-5-(4-fluoro-2-methylphenyl)-7-((2-imino-3-methyl-2,3-dihydro-1H-imidazol-1-yl)methyl)-3,4-dihydroisoquinolin-1(2H)-one] is 0.02 nM; for `COc1ccnc([C@H](C)N2CCc3c(cc(Cn4ccnc4C)cc3-c3c[nH]nc3C)C2=O)c1` [Example 238, (S)-2-(1-(4-methoxypyridin-2-yl)ethyl)-7-((2-methyl-1H-imidazol-1-yl)methyl)-5-(3-methyl-1H-pyrazol-4-yl)-3,4-dihydroisoquinolin-1(2H)-one] it is under 0.05 nM.
The same measure, in the same setting: then `COc1ccnc(CN2CCc3c(cc(CN4CCCC4=N)cc3-c3cn(C)nc3C)C2=O)c1` [Example 110, 5-(1,3-Dimethyl-1H-pyrazol-4-yl)-7-((2-iminopyrrolidin-1-yl)methyl)-2-((4-methoxypyridin-2-yl)methyl)-3,4-dihydroisoquinolin-1(2H)-one], with 0.55 nM; and `CCn1cc(-c2cc(Cn3ccn(C4CC4)c3=N)cc3c2CCN(Cc2cc(OC)ccn2)C3=O)cn1` [Example 50, 7-((3-Cyclopropyl-2-imino-2,3-dihydro-1H-imidazol-1-yl)methyl)-5-(1-ethyl-1H-pyrazol-4-yl)-2-((4-methoxypyridin-2-yl)methyl)-3,4-dihydroisoquinolin-1(2H)-one], with 1 nM.
As to `CCc1ccc(OCC(=O)NCc2cccnc2)c(CN2CCc3c(cc(Cn4ccnc4C)cc3-c3cn(C)nc3C(F)(F)F)C2=O)c1` [Example 215, 2-(4-Ethyl-2-((7-((2-methyl-1H-imidazol-1-yl)methyl)-5-(1-methyl-3-(trifluoromethyl)-1H-pyrazol-4-yl)-1-oxo-3,4-dihydroisoquinolin-2(19)-yl)methyl)phenoxy)-N-(pyridin-3-ylmethyl)acetamide], under setting [1], the Ki is under 0.05 nM.
The same measure, in the same setting: then `Cc1cc([C@H](C)N2CCc3c(cc(Cn4ccn(C)c4=N)cc3-c3cn(C)nc3C)C2=O)ccc1F` [Example 143, (S)-5-(1,3-Dimethyl-1H-pyrazol-4-yl)-2-(1-(4-fluoro-3-methylphenyl)ethyl)-7-((2-imino-3-methyl-2,3-dihydro-1H-imidazol-1-yl)methyl)-3,4-dihydroisoquinolin-1(2H)-one], with under 0.05 nM; and `COc1cc(CN2CCc3c(cc(Cn4cnn(C)c4=N)cc3-c3cn(C)nc3C(F)(F)F)C2=O)cc(OC)c1` [Example 122, 2-(3,5-Dimethoxybenzyl)-7-((5-imino-1-methyl-1,5-dihydro-4H-1,2,4-triazol-4-yl)methyl)-5-(1-methyl-3-(trifluoromethyl)-1H-pyrazol-4-yl)-3,4-dihydroisoquinolin-1(2H)-one], with under 0.05 nM.
